According to PubChem BioAssay AID686978 (National Center for Advancing Translational Sciences (NCATS), 2013):
Hit rate of the full screen: of about 420,000 compounds, about 64,000 (15%) were called active. The inconclusive results got no clear call from the source; some entries with a clear call stand among them for comparison. Calls follow the shape of the dose curve; as a rule, active = well fitted inhibition curve with a large enough effect; inconclusive = small, poorly fitted or top-dose-only effect; inactive = flat fitted curve, though single readings scatter. Potencies of inconclusive entries are left out as doubtful fits.
% is scaled to controls: 0 for no effect and ±100 for the full control effect; potency is read from the fitted curve at half-maximal effect; tags tell the direction and shape of the fitted curve.

Test: qHTS for Inhibitors of human tyrosyl-DNA phosphodiesterase 1 (TDP1): qHTS in cells in absence of CPT; also: nearly all actives have a fitted effect of over 55% in size
Conditions: DT40 Tdp1-/- hTDP1 cells, no CPT, ATP luminescence, 48 h; activity change, negative = growth inhibition: at 46.2 µM (top of the series) unless noted
Outline: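 DT40 Tdp1-/-;hTDP1 cells, no CPT (DMSO vehicle only), 400 cells/well; compounds pin-transferred; ≥48 hr, 37 °C; CellTiter-Glo 30 min RT dark, luminescence read.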
With `Cc1ccc(S(=O)(=O)N2CCCCC2)cc1NS(=O)(=O)c1ccccc1F` the “activity change, negative = growth inhibition” value was inactive: -17.7%.
With `Cc1ccc(Nc2nnc(SCC(=O)c3cc4ccccc4o3)s2)cc1C` the Potency was inconclusive [inhibitor, single point].
With `CN(C)S(=O)(=O)c1cccc(NC(=O)c2sccc2-c2ccccc2)c1` the Potency was inconclusive [inhibitor, single point].
With `Cc1nc(NC(=O)/C=C/c2ccccc2)sc1C(=O)N(C)C` the Potency was inconclusive [inhibitor, full curve, poor fit].
With `Cc1coc2cc3oc(=O)c(CC(=O)NCc4ccccc4)c(C)c3cc12` the Potency was active: 5.17 µM.
For `COc1ccccc1N1CCN(Cc2cc(=O)c(OCC(=O)NC(C)C)co2)CC1`, the Potency was inconclusive [inhibitor, single point].
In the case of `c1ccc2c(Cn3ccnc3)cccc2c1`, the “activity change, negative = growth inhibition” value is reported as inactive: -5.14%.
For `O=C(NCC1CCCO1)c1cccc(S(=O)(=O)Nc2ccc(F)cc2)c1` (stereo not given), the “activity change, negative = growth inhibition” value was inactive: -28.6%.
In the case of `COc1cc(OC)c2c(c1)C(=O)c1cc(OC)cc(OC)c1C2=O`, the Potency is reported as inconclusive [inhibitor, partial curve].
With `Cn1c(NC(=O)C[n+]2cc(-c3ccc(Cl)c(Cl)c3)n3c2CCC3)cc(=O)n(C)c1=O` the activity change, negative = growth inhibition was inconclusive: -31.6% [inhibitor].
In the case of `Cc1sc2ncnc(SCC(=O)N3CCCCC3)c2c1C`, the Potency is reported as inconclusive [inhibitor, single point].
For `COc1ccc(-n2nnnc2/C=C\Nc2ccccc2C(=O)c2ccccc2)cc1`, the Potency was active: 5.8 µM.
In the case of `COc1cccc(-c2cnc(NCc3ccccc3Cl)n2C)c1`, the Potency is reported as inconclusive [inhibitor, single point].
With `CC(=O)Nc1ccccc1C(=O)C(=O)Nc1ccc(F)cc1` the “activity change, negative = growth inhibition” value was inactive: 2.57%.
With `CCOc1ccccc1NC(=O)c1cc(S(=O)(=O)NC2CCCC2)ccc1F` the Potency was inconclusive [inhibitor, single point].
For `CC(C)(C)CNC(=O)C1(C)CCN1C(=O)Cc1ccc(-c2ccccc2)cc1` (stereo not given), the Potency was active: 18.4 µM.
In the case of `C[C@]12C=CC(=O)C=C1CC[C@@H]1[C@@H]2[C@@H](O)C[C@@]2(C)[C@H]1CC[C@]2(O)C(=O)CO`, the Potency is reported as inconclusive [inhibitor, partial curve, poor fit].
With `Oc1ccccc1N=Nc1nc(-c2ccccc2)c(-c2ccccc2)[nH]1` the Potency was active: 2.91 µM.
For `CN1OC[C@@H]2CN(C(=O)NC3CCCCC3)[C@H](c3ccc(N4CCCCC4)cc3)C[C@@H]21`, the Potency was inconclusive [inhibitor, single point].
For `Cc1c(C(=O)NCC2(N3CCOCC3)CCCCCC2)cnn1-c1nccc(-c2ccccc2F)n1`, the Potency was inconclusive [inhibitor, single point].
In the case of `O=S(=O)(c1ccccc1)N1CCN(CCc2ccccc2)CC1`, the Potency is reported as inconclusive [inhibitor, single point].
For `COc1ccc(Cc2nnc(SCC(=O)N3CCN(c4ccccc4)CC3)o2)cc1`, the Potency was active: 23.1 µM.
With `Cc1cc(S(=O)(=O)NCCCN2CCOCC2)ccc1Br` the “activity change, negative = growth inhibition” value was inactive: 1.86%.
With `Cc1cccc(CN2CCc3c(OCC(=O)NCc4ccco4)cccc3C2=O)c1` the Potency was inconclusive [inhibitor, single point].
With `CC1Cc2ccccc2N1C(=O)c1cc2sccc2n1Cc1ccccc1` (stereo not given) the Potency was inconclusive [inhibitor, single point].
For `CCOc1ccc2nc(N3CCC(C(=O)Nc4c(C)cccc4C)CC3)sc2c1`, the Potency was inconclusive [inhibitor, single point].
With `NC(N)=Nc1nc(C2COc3ccccc3O2)cs1` (stereo not given) the Potency was inconclusive [inhibitor, single point].
For `Cc1ccc(C)c(N2CCN(C(=O)c3cc4c(=O)n(Cc5cccs5)ccc4nc3C)CC2)c1`, the Potency was active: 20.6 µM.
For `COc1ccc(CNc2nc(-c3cccnc3)nc3ccccc23)c(OC)c1`, the Potency was inconclusive [inhibitor, single point].
In the case of `Cc1ccccc1C(=O)Nc1nnc(CC(=O)N/N=C/c2ccco2)s1`, the “activity change, negative = growth inhibition” value is reported as inactive: -2.04%.
In the case of `CCCCN1C(=O)CC(SC2CC(=O)N(CCCC)C2=O)C1=O` (stereo not given), the Potency is reported as active: 5.8 µM.
In the case of `O=C(C1CCN(S(=O)(=O)c2cccs2)CC1)N1CCN(c2ccccc2O)CC1`, the Potency is reported as inconclusive [inhibitor, partial curve].
With `COc1ccc(CNc2nc3ccccc3n2CCN2CCOCC2)cc1` the Potency was active: 20.6 µM.
For `Cc1onc(-c2ccccc2Cl)c1C(=O)OCC(=O)Nc1cccc(S(=O)(=O)N(C)C)c1`, the Potency was active: 16.4 µM.
With `CC1CCCCN1C(=S)Nc1ccc(S(=O)(=O)N2CCCCC2)cc1` (stereo not given) the Potency was inconclusive [inhibitor, single point].
With `O=C(Nc1ccccc1)N1CCCN(c2ccc(C(F)(F)F)cn2)CC1` the Potency was inconclusive [inhibitor, single point].
For `Cc1ccc(-c2nc3cccnc3o2)cc1NC(=O)COc1ccc(Cl)cc1C`, the Potency was inconclusive [inhibitor, partial curve].
With `NS(=O)(=O)c1ccc(CCNC(=O)c2ccccc2-c2ccccc2)cc1` the “activity change, negative = growth inhibition” value was inactive: -0.0122%.
For `CC(C)(CNC(=O)c1cccc(NS(=O)(=O)c2ccc(Br)cc2)c1)N1CCOCC1`, the activity change, negative = growth inhibition was inconclusive: -32.5% [inhibitor].
In the case of `Cc1ccc(S(=O)(=O)N2CCN(c3nc(-c4cccs4)nc4ccccc34)CC2)cc1`, the Potency is reported as active: 11.2 µM.
In the case of `CCCn1c(SCC(=O)c2c(C)[nH]c(C)c2C(=O)OCC)nc2ccccc21`, the Potency is reported as inconclusive [inhibitor, single point].
With `CC(C)C(C)NC(=O)COc1ncnc2ccccc12` (stereo not given) the “activity change, negative = growth inhibition” value was inactive: 2.12%.
For `Cc1ccc(C)c(CN2C(=O)c3ccccc3S(=O)c3ccc(C(=O)N(C)Cc4ccccc4)cc32)c1` (stereo not given), the Potency was inconclusive [inhibitor, single point].
For `Oc1ccc(Cl)cc1C1=NNC(c2cc(Br)cc3c2OCOC3)C1` (stereo not given), the Potency was inconclusive [inhibitor, single point].
For `Cc1ccc(/C=C(\NC(=O)c2ccccc2)C(=O)NCC2CCCO2)o1` (stereo not given), the “activity change, negative = growth inhibition” value was inactive: 0.102%.
